# Laboratory results: the supplement of paper PMC10037445
# Over roughly 2,900 compounds, “IRF Lucia reporter activity, fold change vs agonist alone” has its median near 0.9; the highest 2% begin near 2.8. Some of the results follow.
# Experiments:
# [1] = system: RAW-Dual; test: IRF Lucia reporter activity, fold change vs agonist alone; higher = enhanced IRF activity; conditions: cytotoxicity flag (confluency mask): not cytotoxic, agonist: MPLA (TLR4) […]
# In short: (§1)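 Cytotoxic wells were those whose IncuCyte confluency was below 70% of agonist controls in both mask sets. The cells were RAW-Dual macrophages at 50,000 cells/well in DMEM on 384-well plates, dosed with 50 nL of library stock by pin tool, stimulated with a PRR agonist 1 h later, and kept at 37 °C, 5% CO2 for 20 hours. IRF and NF-κB reporter activity, as fold change over agonist-alone wells, came from supernatant read by QuantiLuc luminescence and QuantiBlue absorbance, respectively.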
# [2] = system: RAW-Dual; test: IRF Lucia reporter activity, fold change vs agonist alone; cytotoxicity flag (confluency mask): not cytotoxic; higher = enhanced IRF activity
# In short: as §1
# [3] = system: RAW-Dual; test: IRF Lucia reporter activity, fold change vs agonist alone; cytotoxicity flag (confluency mask): cytotoxic (confluency <70% of control); higher = enhanced IRF activity
# In short: as §1
# [4] = agonist: 3'3'-cGAMP (STING) 10 ug/mL
# [5] = library stock concentration (final ~1000-fold dilution): 10 mM
smiles,measurement,setting,value
CN1C(=O)COc2c(C(=O)NC3CN4CCC3CC4)cc(Cl)cc21.Cl (configuration not stated),IRF Lucia reporter activity,[1]; library stock concentration (final ~1000-fold dilution): 2 mM water,1.23
CN1C(=O)COc2c(C(=O)NC3CN4CCC3CC4)cc(Cl)cc21.Cl (configuration not stated) (library stock concentration (final ~1000-fold dilution): 2 mM water),IRF Lucia reporter activity,[2]; [4],1
same,IRF Lucia reporter activity,[2]; agonist: LPS (TLR4) 0.1 ug/mL,0.74
COc1cc(C2c3cc4c(cc3C(O)C3COC(=O)C23)OCO4)cc(OC)c1OC (configuration not stated) (library stock concentration (final ~1000-fold dilution): 10 mM),IRF Lucia reporter activity,[3]; [4],0.0599
same,IRF Lucia reporter activity,[3]; agonist: LPS (TLR4) 0.1 ug/mL,1.68
CN1CCN(C(=O)COc2ccc(C34CC5CC(CC(C5)C3)C4)cc2)CC1 (library stock concentration (final ~1000-fold dilution): 10 mM),IRF Lucia reporter activity,[2]; [4],0.265
same,IRF Lucia reporter activity,[2]; agonist: LPS (TLR4) 0.1 ug/mL,1.13
CC1CCC2(OC1)OC1CC3C4CC=C5CC(OC6OC(CO)C(OC7OC(C)C(O)C(O)C7O)C(O)C6OC6OC(C)C(O)C(O)C6O)CCC5(C)C4CCC3(C)C1C2C (configuration not stated),IRF Lucia reporter activity,[1]; [5],1.04
CC1CCC2(OC1)OC1CC3C4CC=C5CC(OC6OC(CO)C(OC7OC(C)C(O)C(O)C7O)C(O)C6OC6OC(C)C(O)C(O)C6O)CCC5(C)C4CCC3(C)C1C2C (configuration not stated) (library stock concentration (final ~1000-fold dilution): 10 mM),IRF Lucia reporter activity,[2]; [4],1.01
same,IRF Lucia reporter activity,[2]; agonist: LPS (TLR4) 0.1 ug/mL,0.208
CC(=O)OC1CN2CCC1CC2.Cl (configuration not stated),IRF Lucia reporter activity,[1]; [5],1.07
CC(=O)OC1CN2CCC1CC2.Cl (configuration not stated) (library stock concentration (final ~1000-fold dilution): 10 mM),IRF Lucia reporter activity,[2]; [4],1.07
same,IRF Lucia reporter activity,[2]; agonist: LPS (TLR4) 0.1 ug/mL,1.12
CCC1CN2CCC3(C(=O)Nc4ccccc43)C2CC1/C(=C\OC)C(=O)OC (configuration not stated) (library stock concentration (final ~1000-fold dilution): 10 mM),IRF Lucia reporter activity,[2]; [4],1.01
same,IRF Lucia reporter activity,[2]; agonist: LPS (TLR4) 0.1 ug/mL,0.993
Nc1ncnc2c1ccn2C1OC(C(O)c2ccccc2)C(O)C1O (configuration not stated) (library stock concentration (final ~1000-fold dilution): 10 mM),IRF Lucia reporter activity,[2]; [4],0.852
same,IRF Lucia reporter activity,[2]; agonist: LPS (TLR4) 0.1 ug/mL,1.02
CCC(C(N)=O)N1CCCC1=O (configuration not stated) (library stock concentration (final ~1000-fold dilution): 10 mM),IRF Lucia reporter activity,[2]; [4],1.04
same,IRF Lucia reporter activity,[2]; agonist: LPS (TLR4) 0.1 ug/mL,0.965
CCC(C(N)=O)N1CCCC1=O (configuration not stated),IRF Lucia reporter activity,[1]; [5],1.01
Cl.O=C(O)Cc1c[nH]cn1,IRF Lucia reporter activity,[1]; [5],1.02
Cl.O=C(O)Cc1c[nH]cn1 (library stock concentration (final ~1000-fold dilution): 10 mM),IRF Lucia reporter activity,[2]; [4],1.01
same,IRF Lucia reporter activity,[2]; agonist: LPS (TLR4) 0.1 ug/mL,1.02
CN1C2CCC1CC(=O)C2,IRF Lucia reporter activity,[1]; [5],0.837
CN1C2CCC1CC(=O)C2 (library stock concentration (final ~1000-fold dilution): 10 mM),IRF Lucia reporter activity,[2]; [4],1.14
same,IRF Lucia reporter activity,[2]; agonist: LPS (TLR4) 0.1 ug/mL,1.07
CC[N+](C)(CC)CCOC(=O)C(O)(c1ccccc1)c1ccccc1,IRF Lucia reporter activity,[1]; [5],1.01
CC[N+](C)(CC)CCOC(=O)C(O)(c1ccccc1)c1ccccc1 (library stock concentration (final ~1000-fold dilution): 10 mM),IRF Lucia reporter activity,[2]; [4],1.01
same,IRF Lucia reporter activity,[2]; agonist: LPS (TLR4) 0.1 ug/mL,1.26
CN1C2CCC1CC(OC(=O)C(CO)c1ccccc1)C2 (configuration not stated) (library stock concentration (final ~1000-fold dilution): 10 mM),IRF Lucia reporter activity,[2]; [4],0.736
same,IRF Lucia reporter activity,[2]; agonist: LPS (TLR4) 0.1 ug/mL,1.05
CN1C2CCC1CC(OC(=O)C(CO)c1ccccc1)C2 (configuration not stated),IRF Lucia reporter activity,[1]; [5],1.08
CN1CCN(c2nc3ccccc3nc2Cl)CC1,IRF Lucia reporter activity,[1]; [5],0.866
CN1CCN(c2nc3ccccc3nc2Cl)CC1 (library stock concentration (final ~1000-fold dilution): 10 mM),IRF Lucia reporter activity,[2]; [4],0.898
same,IRF Lucia reporter activity,[2]; agonist: LPS (TLR4) 0.1 ug/mL,0.839
CCN1CC2(OC(=O)c3ccccc3NC(C)=O)CCC(OC)C34C1C(CC23)C1(O)CC(OC)C2CC4C1(O)C2OC (configuration not stated) (library stock concentration (final ~1000-fold dilution): 10 mM),IRF Lucia reporter activity,[2]; [4],1.05
same,IRF Lucia reporter activity,[2]; agonist: LPS (TLR4) 0.1 ug/mL,1.1
CCN1CC2(OC(=O)c3ccccc3NC(C)=O)CCC(OC)C34C1C(CC23)C1(O)CC(OC)C2CC4C1(O)C2OC (configuration not stated),IRF Lucia reporter activity,[1]; [5],1.05
COc1cc2c(cc1OC)C13CCN4CC5=CCOC6CC(=O)N2C1C6C5CC43.COc1cc2c(cc1OC)C13CCN4CC5=CCOC6CC(=O)N2C1C6C5CC43.O.O.O.O.O.O.O.O=S(=O)(O)O (configuration not stated),IRF Lucia reporter activity,[1]; [5],1.06
COc1cc2c(cc1OC)C13CCN4CC5=CCOC6CC(=O)N2C1C6C5CC43.COc1cc2c(cc1OC)C13CCN4CC5=CCOC6CC(=O)N2C1C6C5CC43.O.O.O.O.O.O.O.O=S(=O)(O)O (configuration not stated) (library stock concentration (final ~1000-fold dilution): 10 mM),IRF Lucia reporter activity,[2]; [4],1.06
same,IRF Lucia reporter activity,[2]; agonist: LPS (TLR4) 0.1 ug/mL,0.675
Cc1ccccc1-n1c(Cn2ncc3c(N)ncnc32)nc2cccc(C)c2c1=O (library stock concentration (final ~1000-fold dilution): 10 mM),IRF Lucia reporter activity,[2]; [4],1.08
same,IRF Lucia reporter activity,[2]; agonist: LPS (TLR4) 0.1 ug/mL,1.09
Cc1ccccc1-n1c(Cn2ncc3c(N)ncnc32)nc2cccc(C)c2c1=O,IRF Lucia reporter activity,[1]; [5],1.03
Br.CN1C2CC(OC(=O)C(CO)c3ccccc3)CC1C1OC12.O.O.O (configuration not stated) (library stock concentration (final ~1000-fold dilution): 10 mM),IRF Lucia reporter activity,[2]; [4],0.889
same,IRF Lucia reporter activity,[2]; agonist: LPS (TLR4) 0.1 ug/mL,0.379
Br.CN1C2CC(OC(=O)C(CO)c3ccccc3)CC1C1OC12.O.O.O (configuration not stated),IRF Lucia reporter activity,[1]; [5],1.11
